Among all 150,000 compounds or so, about 540 (0.36%) showed an effect of 50% or more. The list shows a part of the results.
tested on: Plasmodium falciparum; assay: Primary screen in NF54 nanoGlo assay, in single point, at 2uM, 72h; a lower Z score goes with more inhibition; type: functional, Erythrocyte; conditions: timepoint 72 hour

SMILES	% Inhibition	Z score
COc1ccc(-c2noc(N3CCN(c4cc(Cl)ccc4C)CC3)n2)cc1	-4%	0.53
COc1ccc(F)cc1C(NC(=O)c1csc(C)n1)[C@H]1C[C@@H](O)C1 (stereo partly drawn)	6%	-0.95
O=C(NCc1ccc(CNC(=O)C(Cl)(Cl)Cl)cc1)C(Cl)(Cl)Cl	-8%	1.05
COc1cc([C@H]2CC(O)=Nc3nc(N)sc32)ccc1OCCc1ccccc1	-7%	0.99
CC(C)c1ccccc1NC(=O)CCN1CCC2(CC1)C(=O)N(C)C(=O)N2C	4%	-0.6
c1ccc(CNc2nccc(N3CCn4cnnc4C3)n2)cc1	22%	-2.56
O=C(CCNC(=O)N1CCOCC1)Nc1ccccc1	-2%	0.32
CCc1cccc(NC(=O)CN2N=C(c3ccccc3)c3ccccc3S2(=O)=O)c1	-26%	2.43
CCCC(C#N)(CCC)NC(=O)c1ccncc1F	-7%	1.18
COc1cccc(-c2ccc(N3CCC(NC[C@H]4CCCO4)CC3)cc2)c1	-12%	1.66
COc1ccc(S(=O)(=O)C2CCN(C(=O)c3cccc(C(F)(F)F)c3)CC2)cc1	-23%	2.89
CC(C)(CNC(=O)[C@@H]1NCCOc2ccccc21)C(N)=O	-5%	0.86
COc1cccc2c1OC[C@@H](C(=O)NC1CCN(Cc3ccco3)CC1)C2	-3%	0.44
O=C(Nc1cccnc1)c1ccc(CNC(=O)c2ccccc2F)cc1	-8%	1.38
O=S(=O)(Nc1cccnc1)N1CCCC1	0%	0.02
O=C(Nc1cncc2ccccc12)c1ncccn1	-22%	2.51
O=S(=O)(c1ccc2c(c1)CCC2)N1CCC(OCc2noc([C@@H]3CCCO3)n2)CC1	2%	-0.27
C[C@@H](O)[C@@H](CO)NC(=O)Cc1nn(C)c2ccccc12	-10%	1.92
O=C(c1cccc2cc[nH]c12)N1CC[C@@H](CO)[C@@H](O)C1	-6%	0.84
CN1CCC(NC(=O)c2n[nH]c3c2CN(C(=O)c2ccccc2F)CC3)CC1	-2%	0.25
CC(C)C[C@H](O)CNC(=O)c1ccncc1	-4%	0.63
Cc1ccccc1-c1nc2nc(C)c(CC(=O)N3CCN(c4ccc(F)cc4)CC3)c(C)n2n1	2%	-0.28
Cc1ccc(CNC(=O)c2cnc3c(-c4cccc(C)c4)c(C)nn3c2C(F)(F)F)cc1	-11%	1.23
CN(CC(=O)Oc1ccc(N2CCCC2=O)cc1)c1ccccc1	6%	-0.72
CC1CCCC(NC(=O)NC(=O)CN2CCC(=O)Nc3cc(F)ccc32)C1C (stereo not drawn)	-16%	1.81
COc1ccc([C@H]2C[C@H](NCc3cnc(C4CC4)o3)C2)cc1F	2%	-0.35
Cc1c(-c2cc(-c3cnn(C)c3C)n(S(=O)(=O)c3cnn(C)c3)n2)cnn1C	34%	-3.83

SMILES	% Inhibition	Z score
O=C(Cc1ccccc1)NCCCNC(=O)Cc1ccccc1	1%	-0.09
Cc1nc(NC(=O)c2n[nH]c3c2CCC3)n(C)n1	7%	-1.19
CCOC(=O)[C@H]1CN(C(=O)OC(C)(C)C)CC[C@@H]1F	-9%	1.47
O=C(Cc1csc(-c2ccccc2)n1)N1CCCC[C@@H]1CCn1ccnc1	-12%	1.58
CC[C@@H](O)CN1CCCCC1CCOC(C)C (stereo partly drawn)	-9%	1.3
Cc1cccc(N2CCN(C(=O)Cn3cnc4onc(C)c4c3=O)CC2)c1C	-9%	1.6
C[C@H]1CN(C(=O)CN2CCCC2)CCO1	-11%	1.18
Cc1cc(=O)[nH]c2c1cnn2[C@@H](C)C1CC1	1%	-0.15
COc1ccc(C(=O)C[C@H](Nc2ccc3ccccc3c2)c2cccnc2)cc1	-5%	0.73
C[C@H](NC(=O)CN1CCN(S(=O)(=O)c2ccccc2)CC1)c1cccs1	-7%	0.75
O=C(COc1cccc(Cl)c1)N1C[C@H]2CC[C@@H](C1)N(CC1CC1)C2=O	-1%	0.19
COC(=O)C(C)(C)NS(=O)(=O)c1c(C)noc1C	-16%	2.96
NCCCCc1nc(-c2ccccn2)cs1	-4%	0.51
Cc1cnn(CC(=O)N2CCN3CCOc4cccc2c43)c1	3%	-0.35
COc1cc2c(cc1OC)[C@@H](c1c(F)cccc1Cl)N(C(=O)c1ccccc1C(F)(F)F)CC2	-19%	1.66
O=C([C@H]1CC1(F)F)N1CCCc2n[nH]cc21	-11%	2.2
CCCCNC(=O)c1c(CO)cc(C)[nH]c1=O	0%	-0.02
Cc1nscc1C(=O)N[C@H](C#N)c1cnn(-c2ccccc2)c1	-2%	0.32
CCn1ccnc1CN1CCN(C(=O)c2ccc3c(c2)ncn3C)CC1	-7%	1.42
CCCCc1nc(C)c(C(=O)NC2(C(=O)O)CCCCC2)s1	-11%	1.87
CC(=O)N1CCC(CN2CCn3cc(C(=O)NCc4ccccc4)nc3[C@H]2c2ccccc2)CC1	-9%	1.35
Cc1cc(CS(=O)(=O)[C@@H](C)C(=O)NCc2ccccc2)on1	-12%	2.41
CC(C)c1cncnc1N1CCO[C@H](c2ccc(Cl)cc2)C1	0%	0.01
CONC(=O)N[C@@H](C)c1csc(C2CC2)n1	-4%	0.49
Cc1ccc(C(=O)N2CCC(N3CCCCC3)CC2)c(C2CCN(C(=O)c3ccc(F)cc3F)CC2)n1	-2%	0.26
CCOC(=O)C1=C(C)N(C2CCCCC2)C(=O)[C@]1(NC(=O)c1ccc(Cl)cc1Cl)C(F)(F)F	-15%	1.91
O=C1[C@@H]2C[C@H](O)CCN2C(=O)CN1C1Cc2ccccc2C1	-8%	1.57

— ChEMBL document CHEMBL4888484, “Replenishing the malaria drug discovery pipeline: Screening and hit evaluation of the MMV Hit Generation Library 1 (HGL1) against asexual blood stage Plasmodium falciparum ,using a nano luciferase reporter read-out” (2022)
